Laboratory results published in PubChem BioAssay AID686970 (National Center for Advancing Translational Sciences (NCATS), 2013).
The whole screen tested about 360,000 compounds, of which about 6,000 (1.7%) were called active. The inconclusive results got no clear call from the source; some entries with a clear call stand among them for comparison. Calls follow the shape of the dose curve; as a rule, active = well fitted cell-killing curve with a large enough effect; inconclusive = small, poorly fitted or top-dose-only effect, or effect the other way; inactive = flat fitted curve, though single readings scatter. No potency is given beside an inconclusive call; the fits are too rough.

assay: qHTS for induction of synthetic lethality in tumor cells producing 2HG: qHTS for the HT-1080-NT fibrosarcoma cell line; conditions: HT-1080-NT fibrosarcoma viability, CellTiter-Glo ATP luminescence, 48 h; activity, negative = less viability: at 46.1 µM (top of the series) unless noted;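 also: NT is the 2HG producing partner of a matched IDH1 knockdown line; nearly all actives have a fitted effect of over 55% in size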;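 as to activity, negative = less viability: 0% = DMSO-treated cells and -100% = media-only wells without cells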
Summary of the method: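 Viability by CellTiter-Glo luminescence after 48 h compound exposure at 37C of HT-1080-NT cells (750/well, RPMI, 5% FBS). % activity scaled between DMSO wells and medium-only wells, then curve-fitted and categorized by curve class.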
Potency is read from the fitted curve at half-maximal effect; tags tell the direction and shape of the fitted curve.

SMILES | Potency | activity, negative = less viability
C=CCn1c(C)cc(C(=O)CSc2nnc(NCc3ccccc3)s2)c1C | inconclusive [cytotoxic, single point] | –
Cc1ccc(-c2cc3nc(-c4ccccc4)cc(NCCCO)n3n2)cc1 | inconclusive [cytotoxic, single point] | –
COc1ccc(NS(=O)(=O)c2cc(NC(=O)c3ccc(=O)[nH]n3)ccc2C)cc1 | active: 25.9 µM | –
CC(C)C1C(c2ccccc2)NC(c2ccccc2)CC1(O)c1ccc(F)cc1 (stereo not drawn) | inconclusive [cytotoxic, single point] | –
CCCCSCc1nc2nc(Cl)c(Cl)nc2[nH]1 | inconclusive [cytotoxic, single point] | –
CC(C)Oc1cccc(C(=O)C2CCCN(C(=O)c3ccnn3C)C2)c1 (stereo not drawn) | – | inactive: -4.92%
CCCNC(=O)C1(C)CCCN(Cc2ccccc2-c2ccccc2)C1 (stereo not drawn) | – | inconclusive: 17%
COc1cccc(Cn2c(NCC(C)C)nc3c2c(=O)n(C)c(=O)n3C)c1 | inconclusive [cytotoxic, partial curve] | –
CCc1nnc(NC(=O)c2nc(S(=O)(=O)Cc3ccccc3)ncc2Cl)s1 | active: 11.6 µM | –
O=C(N/N=C/c1cc2c(cc1Cl)OCO2)c1ccc2c(c1)OCCO2 | – | inactive: -3.11%
N#C/C(=N\Nc1ccc(F)cc1)C(=O)C1CC1 | – | inactive: -10.3%
CCOC(=O)N1CCC(NC(=O)c2oc3c(C)c(C)ccc3c2C)CC1 | – | inactive: 4.72%
Cc1nc(N2CCC(C(N)=O)CC2)c2c(-c3cccs3)csc2n1 | – | inactive: -22.6%
c1cc(-c2ccoc2)n2ccnc2c1 | inconclusive [rising, single point] | –
CCC1CCCCN1CCCNC(=O)C1CCC(CNS(=O)(=O)c2c(C)cc(C)cc2C)CC1 (stereo not drawn) | inconclusive [cytotoxic, partial curve] | –
Cc1ccc2nc(NC(=O)CSc3nc4ccccc4o3)sc2c1 | inconclusive [cytotoxic, single point] | –
CCOC(=O)CSC1=NC(=O)/C(=C\c2ccc(OC(C)=O)cc2)S1 | inconclusive [cytotoxic, single point] | –
CC1(C)Cc2c(sc(NC(=O)c3ccc4ncsc4c3)c2C(N)=O)C(C)(C)N1 | active: 23.1 µM | –
CCCc1ccc(OCc2ccc(C(=O)NN)o2)c(OC)c1 | inconclusive [cytotoxic, single point] | –
Cc1ccc(NC2=CC(=O)C(=O)c3ccccc32)cc1 | active: 10 µM | –
O=C(CSc1ncnc2scc(-c3ccc(F)cc3)c12)c1ccc2c(c1)OCCO2 | – | inactive: 0.273%
CN(Cc1ccccc1)c1nc2c(c(=O)[nH]c(=O)n2C)n1CCCSc1ncccn1 | – | inactive: -2.88%
Cc1nn(Cc2ccc(Cl)cc2)c(C)c1NC(=O)c1cc(C(C)C)on1 | inconclusive [cytotoxic, single point] | –
CN(C)C1=NC[C@H](Cc2ccccc2)N1CCCC1CCCC1 | active: 20.6 µM | –
O=[N+]([O-])c1ccc(N2CCN(C(=S)NCc3ccc(Cl)cc3)CC2)cc1 | inconclusive [cytotoxic, single point] | –

SMILES | Potency | activity, negative = less viability
Cc1ccc(C(=O)Nc2nc3ccccc3c(=O)s2)cc1 | inconclusive [cytotoxic, single point] | –
CS(=O)(=O)c1sc(C#N)c2c1C(=O)CC(c1ccccc1)C2 (stereo not drawn) | active: 6.51 µM | –
CCc1ccc2[nH]c(=O)c(CN(CCN(C)C)C(=O)Nc3ccccc3)cc2c1 | inconclusive [cytotoxic, single point] | –
COc1cc(C2Nc3cccc4cccc(c34)N2)cc(OC)c1O | inconclusive [cytotoxic, single point] | –
Cc1ccc(-c2c[n+]3c(n2-c2ccccc2)CCC3)cc1 | inconclusive [cytotoxic, full curve, poor fit] | –
Cc1ccc(/C=C/C(=O)c2c(C)nc3ccccn23)cc1 | – | inconclusive: -46.3%
COc1ccc2c(c1)c(=O)c(C(=O)c1ccccc1)cn2Cc1ccc(C)cc1 | inconclusive [cytotoxic, single point] | –
Cc1ccc(-c2nc3cccnc3s2)cc1NC(=O)c1ccco1 | inconclusive [rising, single point] | –
CCc1ccc(CNC(=O)Cc2ccc(NC(=O)C3=C(C)OCCS3)cc2)cc1 | active: 0.82 µM | –
COc1cc(C(=O)NC2CCN(C)CC2)ccc1Nc1ncc2c(n1)N(CCc1ccccc1)CCC(=O)N2C | inconclusive [cytotoxic, single point] | –
Cc1ccc(N(C(=O)c2snc(C(N)=O)c2N)C(CC(C)C)C(=O)NC2CCCC2)cc1 (stereo not drawn) | inconclusive [rising, partial curve] | –
COc1ccc(CNC(=O)C2CCCN(S(=O)(=O)N3CCC(C)CC3)C2)c(OC)c1 (stereo not drawn) | – | inactive: 3.47%
CCN(CC)CCNc1nc(-c2ccc(OC)cc2)c(-c2ccc(OC)cc2)s1 | inconclusive [cytotoxic, single point] | –
CC(C)(C)c1cc(NCCCn2ccnc2)n2ncc(-c3ccccc3)c2n1 | active: 18.4 µM | –
CC(C)N1CCC(C)(C(=O)Nc2cccc(Oc3ccccc3)c2)C1 (stereo not drawn) | inconclusive [cytotoxic, single point] | –
CN(C)C(=O)c1cccc(-c2cnc3c(NC=O)cc(-c4cc(F)c(F)c(F)c4)cn23)c1 | – | inactive: -1.09%
C/C(CCC12CC3CC(CC(C3)C1)C2)=N\NC(N)=S | inconclusive [cytotoxic, single point] | –
CN(C)CCCn1cnc2c(c1=N)C(c1ccccc1)c1ccc3ccccc3c1O2 (stereo not drawn) | inconclusive [cytotoxic, single point] | –
CCCN1CNc2c(c(=O)[nH]c(=S)n2CCc2ccc(OC)cc2OC)C1 | – | inactive: 0.186%
CCOC(=O)C1=C(c2ccc(OC)cc2)C(=O)c2ccccc2C1=O | active: 5.8 µM | –
CCOc1ccccc1NC(=O)C1CCCN(S(=O)(=O)c2ccc3c(c2)CCCN3C(C)=O)C1 (stereo not drawn) | – | inactive: -2.47%
COc1ccccc1NC1=C(NC(C)=O)C(=O)c2ccccc2C1=O | inconclusive [cytotoxic, partial curve] | –
COc1ccc(S(=O)(=O)n2nc(OC(=O)c3c(-c4ccccc4Cl)noc3C)cc2N)cc1 | inconclusive [cytotoxic, partial curve, poor fit] | –
CCc1ccccc1NC(=S)N1CCN(c2ccccc2F)CC1 | – | inactive: -1.71%
C/C(=N\Nc1ncc(Cl)cc1Cl)c1ccccn1 | inconclusive [cytotoxic, full curve, poor fit] | –

SMILES | Potency | activity, negative = less viability
COc1cccc(NC(=S)NNC(=O)c2c([N+](=O)[O-])c(C)nn2C)c1 | inconclusive [cytotoxic, single point] | –
Cc1cccc2nc(CNC(=O)CC3C(=O)NCCN3Cc3cccc(F)c3)cn12 (stereo not drawn) | – | inactive: 6.24%
Cc1ccc(/C=N/NC(=O)c2ccc3ccccc3c2)s1 | inconclusive [cytotoxic, full curve] | –
COc1ccc(C(CNC(=O)C2CCN(S(=O)(=O)c3ccc(F)cc3)CC2)N(C)C)cc1 (stereo not drawn) | – | inactive: -0.0227%
CCC(C)c1ccc(O)c(NC(=O)c2cncc(Br)c2)c1 (stereo not drawn) | inconclusive [cytotoxic, partial curve, poor fit] | –
CN1C2C=C3C(C#N)=C(N)C(C#N)(C#N)[C@H](c4c(F)cccc4F)[C@H]3C1CC2 (stereo partly drawn) | inconclusive [cytotoxic, partial curve] | –
Cn1c(COc2ccccc2)nnc1SCC(=O)Nc1ccc2c(c1)OCO2 | inconclusive [cytotoxic, single point] | –
O=C1c2ccccc2C(=O)N1Nc1ccccc1 | inconclusive [cytotoxic, partial curve] | –
Cc1cc(C)nc(/N=C(\N)Nc2ccccc2-c2ccccc2)n1 | inconclusive [cytotoxic, single point] | –
CCN1CCN(c2ccc(S(=O)(=O)N3CCCCC3)cc2N)CC1 | – | inactive: 5.18%
COc1ccccc1NC(=O)c1ccc(C(=O)Nc2ccccc2OC)nc1 | – | inactive: 8.36%
COC(=O)c1c[nH]c2c1-c1cc(C(=O)OCc3ccccc3)n(S(=O)(=O)c3ccc(C)cc3)c1C(=O)C2=O | inconclusive [cytotoxic, single point] | –
CCOc1cccc(SCc2noc(C(=O)NCC3CCCO3)c2C(=O)O)c1 (stereo not drawn) | – | inactive: 3.18%
Cc1ccc(-c2[nH]c3ccccc3c2C(C[N+](=O)[O-])c2ccco2)cc1 (stereo not drawn) | active: 16.4 µM | –
COc1ccc(C)cc1S(=O)(=O)NCCN1CCOCC1 | inconclusive [rising, single point] | –
COc1cc(-c2noc(C)c2-c2ccc(N(C)C)nc2)cc(OC)c1OC | active: 0.0058 µM | –
Cc1ccc2[nH]c(=O)c(-c3nc4ccccn4c3NCc3ccco3)cc2c1 | inconclusive [cytotoxic, single point] | –
Clc1ccccc1Nc1nc(NCC2CC2)nc2ccsc12 | inconclusive [cytotoxic, single point] | –
COc1cccc(CNc2nc(NCc3cccs3)nc3ccsc23)c1 | active: 18.4 µM | –
CCCCCOc1ccc2oc(=O)c3c(c2c1)CCCN3C(=O)CN1CCCC(C(=O)OCC)C1 (stereo not drawn) | inconclusive [cytotoxic, single point] | –
COc1ccc(NC(=O)c2ccccc2NS(=O)(=O)c2ccc(CNC(C)=O)cc2)c(OC)c1 | active: 13 µM | –
CC1(CCOCc2ccccc2)NC(=O)NC1=O (stereo not drawn) | – | inactive: 9.58%
Cc1c(C(=O)NCCSCc2c(F)cccc2Cl)cnn1-c1ccc(Cl)cc1 | inconclusive [cytotoxic, single point] | –
